1 compound from patent US6987093B2 (priority 2001, dated 2006) can be followed below.

Each structure is given as a SMILES string.

The test system of this experiment is H. influenzae. In words: Study 95-001 otitis media caused by H. influenzae. It is filed as in vivo, human. As to conditions: single dose (30 mg/kg) regimen; 8 patients; follow-up. The method, then:
Specimens for culture and susceptibility testing were obtained from the infected ear by tympanocentesis within 24 h of start of therapy. […] However, the study was evaluated using the breakpoints in the most recent set of guidelines.
To be a bacteriological cure, the MITT subject had to have a positive culture from the middle ear for S. pneumoniae, H influenzae, or M. catarrhalis. Eradication was defined as presumed eradication of pretreatment pathogen(s) based on signs/symptoms or unavailability of culturable material. All evaluable patients had only one of the bacterial species present at baseline. There was no bacteriological response data collected for 95–001. However, the clinical outcome by bacterial pathogen at follow-up (approximately 28 days after first visit) was collected. For patients with S. pneumoniae as the baseline pathogen, all treatment arms yielded 100% clinical cure when the investigators' evaluations that were missing are not included in the analysis. […] The comparator drug, ceftriaxone, had no failures out of 9 patients.

As for `CC[C@H]1OC(=O)[C@H](C)[C@@H](O[C@H]2C[C@@](C)(OC)[C@@H](O)[C@H](C)O2)[C@H](C)[C@@H](O[C@@H]2O[C@H](C)C[C@H](N(C)C)[C@H]2O)[C@](C)(O)C[C@@H](C)CN(C)[C@H](C)[C@@H](O)[C@]1(C)O` [Azithromycin, 9a-aza-9a-methyl-9-deoxo-9a-homoerythromycin A], the failures is given as 1.
